Experimental findings from article PMC4336329 (PLoS ONE, 2015) are described below.

In all, about 310,000 compounds went through this assay and about 2,200 (0.71%) showed an effect of 50% or more. Effects have a minus sign here. This is one part of the list.

In this experiment the target is human ether-à-go-go-related gene (hERG) potassium channel (human, UniProt Q12809). Kind of experiment: primary screen, population patch clamp on CHO cells stably expressing hERG.
Sequence of human ether-à-go-go-related gene (hERG) potassium channel (Q12809 whole entry, looked up): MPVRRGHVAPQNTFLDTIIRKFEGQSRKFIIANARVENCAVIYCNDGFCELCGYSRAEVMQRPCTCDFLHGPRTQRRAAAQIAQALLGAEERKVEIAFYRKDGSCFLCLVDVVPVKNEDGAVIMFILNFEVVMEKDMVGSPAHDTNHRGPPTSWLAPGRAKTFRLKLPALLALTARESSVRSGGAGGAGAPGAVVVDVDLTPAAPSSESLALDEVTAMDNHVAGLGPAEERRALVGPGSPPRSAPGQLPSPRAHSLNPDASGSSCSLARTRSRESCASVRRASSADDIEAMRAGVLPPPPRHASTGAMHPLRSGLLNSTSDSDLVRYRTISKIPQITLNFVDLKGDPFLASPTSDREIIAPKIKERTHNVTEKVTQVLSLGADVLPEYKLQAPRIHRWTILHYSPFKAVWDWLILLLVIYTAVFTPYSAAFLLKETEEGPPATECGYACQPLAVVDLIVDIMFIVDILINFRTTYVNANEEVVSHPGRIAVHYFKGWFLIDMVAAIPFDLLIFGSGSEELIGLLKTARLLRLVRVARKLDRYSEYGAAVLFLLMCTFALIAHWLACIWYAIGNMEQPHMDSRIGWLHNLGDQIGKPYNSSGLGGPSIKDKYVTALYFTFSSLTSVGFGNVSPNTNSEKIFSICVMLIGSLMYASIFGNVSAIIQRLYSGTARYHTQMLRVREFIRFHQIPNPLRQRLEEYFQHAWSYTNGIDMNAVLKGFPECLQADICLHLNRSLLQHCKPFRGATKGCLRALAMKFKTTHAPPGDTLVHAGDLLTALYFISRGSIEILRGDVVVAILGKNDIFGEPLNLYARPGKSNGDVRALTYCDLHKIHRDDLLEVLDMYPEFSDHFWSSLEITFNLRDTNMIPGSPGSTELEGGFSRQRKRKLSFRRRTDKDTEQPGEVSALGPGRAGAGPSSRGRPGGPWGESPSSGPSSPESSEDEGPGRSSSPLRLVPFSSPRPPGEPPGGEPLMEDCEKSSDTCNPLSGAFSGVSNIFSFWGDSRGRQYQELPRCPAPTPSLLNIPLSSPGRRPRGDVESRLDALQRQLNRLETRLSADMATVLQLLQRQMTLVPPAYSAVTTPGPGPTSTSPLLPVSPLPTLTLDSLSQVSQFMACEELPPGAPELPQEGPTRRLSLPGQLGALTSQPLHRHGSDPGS
For the compound `COC(=O)c1c(C)[nH]c(C(=O)C(Cc2ccccc2)N(C)C)c1C` (stereo not drawn), the “hERG current change (%, negative = inhibition) at 1uM” value is -4.51%. `Cc1nc(SC(C(=O)c2ccccc2)c2ccccc2)n[nH]1` (stereo not drawn): the “hERG current change (%, negative = inhibition) at 1uM” value is given as 20.1%. `CCC(C(=O)NCc1ccco1)N(C(=O)CNS(=O)(=O)c1ccc(F)cc1)c1ccccc1F` (stereo not drawn): the “hERG current change (%, negative = inhibition) at 1uM” value is listed as 1.54%.

On to `Cc1sc2nc(C)n(/N=C/c3ccccc3O)c(=O)c2c1C`, for which the “hERG current change (%, negative = inhibition) at 1uM” value is given as -3.57%.

`COc1ccc(CNC(=O)CSc2nc3ccc(OC)cc3[nH]2)cc1`: the “hERG current change (%, negative = inhibition) at 1uM” value was found to be 10.3%. In the case of `CC(C)Cc1nnc(NC(=O)Nc2ccccc2)s1` it was -10.1%. Take `CC(C)N1CCC(=NNC(=O)c2ccccc2[N+](=O)[O-])CC1`: the “hERG current change (%, negative = inhibition) at 1uM” value is reported as -4.79%. `COc1ccc(S(=O)(=O)N2CCCCC2)cc1NC(=O)c1ccc([N+](=O)[O-])o1`: the “hERG current change (%, negative = inhibition) at 1uM” value is recorded as 12.4%. In the case of `CCc1c(C)nc2cc(-c3cc(OC)cc(OC)c3)nn2c1N1CCCC1` it was 6.16%; in that of `CC1C(c2ccccc2)N(C)C(c2ccccc2)CC1(O)c1ccc(F)cc1` (stereo not drawn), 8.82%. Take `COC(=O)c1ccc(NC(=O)C(=O)c2c[nH]c3ccccc23)cc1`: the “hERG current change (%, negative = inhibition) at 1uM” value stood at 14%. Turning to `O=C(CN(C1CCCCC1)S(=O)(=O)c1ccc(F)cc1)NCc1ccncc1`, the “hERG current change (%, negative = inhibition) at 1uM” value is listed as -2.62%.

On to `CN1CCc2c(sc3c2C(=O)NC(c2ccccn2)N3)C1` (stereo not drawn), for which the “hERG current change (%, negative = inhibition) at 1uM” value is given as 8.5%. Turning to `Cc1ccc2occ(/C=C/C(=O)c3ccccc3O)c(=O)c2c1`, the “hERG current change (%, negative = inhibition) at 1uM” value is reported as 5.17%.

Take `O=C(CNC(=O)c1ccccc1)OCc1cccc([N+](=O)[O-])c1`: the “hERG current change (%, negative = inhibition) at 1uM” value is recorded as 10.6%. `C#CCNc1cc(-c2ccccc2)nc2ncnn12`: the “hERG current change (%, negative = inhibition) at 1uM” value is 9.37%.

For the compound `COc1ccc(C(=O)/C=C/Nc2c(C)n(C)n(-c3ccccc3)c2=O)cc1OC`, the “hERG current change (%, negative = inhibition) at 1uM” value is given as -5.19%. For `CCCNC(=O)CSc1n[nH]c(=O)n1CCc1ccccc1` the value was 16.3%; for `O=C(Nc1ccc(F)cc1)OC1CN2CCC1CC2` (stereo not drawn), -8.44%; for `CCCCN(C)C(=O)C1CCN(Cc2ccc(OCc3ccccc3)cc2)CC1.O=C(O)C(=O)O`, -55.7%. On to `N#Cc1cccc(NC(=O)COC(=O)C2CCC2)c1`, for which the “hERG current change (%, negative = inhibition) at 1uM” value was found to be 13%. `CN1C(=O)c2ccc(C(=O)Nc3ccc4c(c3)OCO4)cc2C1=O`: the “hERG current change (%, negative = inhibition) at 1uM” value is listed as 14.2%. Take `Cc1ccc(-n2ncc3c(=O)n(CC(=O)N4CCN(c5ccccc5)CC4)cnc32)cc1`: the “hERG current change (%, negative = inhibition) at 1uM” value is listed as -1.58%. Turning to `CCC(CC)COC(=O)C1=C(C)NC(=O)NC1c1ccc(OC)cc1` (stereo not drawn), the “hERG current change (%, negative = inhibition) at 1uM” value was 11.2%. Take `CCOc1cc(/C=N/OC(C)=O)ccc1OCc1ccccc1`: the “hERG current change (%, negative = inhibition) at 1uM” value was -0.734%.

On to `COc1cccc2c1O/C(=N\O)C(C(=O)Nc1cccc(C)c1C)C2` (stereo not drawn), for which the “hERG current change (%, negative = inhibition) at 1uM” value worked out at 14.1%. For `O=C(Nc1cccnc1)c1ccc(Cl)c(Cl)c1` the value was 11.5%.

As to `COc1cccc(C(=O)Nc2cnc(NC(=O)c3ccco3)cc2C)c1`, the “hERG current change (%, negative = inhibition) at 1uM” value is 5.28%. With `Nc1nonc1-n1nnc(C(=O)N/N=C/c2cccnc2)c1CSC1=NCCS1`, the “hERG current change (%, negative = inhibition) at 1uM” value stood at 9.35%.

For the compound `O=S(=O)(Nc1cccnc1)c1cccc(Cl)c1`, the “hERG current change (%, negative = inhibition) at 1uM” value is reported as -0.153%. In the case of `C[C@]1(C(=O)NCCCNc2ncc(C(F)(F)F)cc2Cl)C=C[C@@H](Cc2ccccc2)N1C(=O)c1ccccc1` it was 10.8%; in that of `CCOC(CCn1ccc(O)c(Cc2ccc(Cl)cc2)c1=O)OCC`, 14.9%; in that of `O=C(CSc1nnc(CNC(=O)c2cccs2)o1)c1ccc(Cl)cc1`, 9.54%. Regarding `CCCOc1ccc(C(=O)NCc2ccco2)cc1`, the “hERG current change (%, negative = inhibition) at 1uM” value is on record as 17.6%. As to `O=C(O)CSc1nnc(-c2ccncc2)n1Cc1ccccc1`, the “hERG current change (%, negative = inhibition) at 1uM” value was 11.7%. For `Cc1c(NC(=O)CN(c2ccc(F)cc2)S(=O)(=O)c2ccccc2)c(=O)n(-c2ccccc2)n1C`, the “hERG current change (%, negative = inhibition) at 1uM” value is reported as -3.12%. As to `NCCc1ccc(S(N)(=O)=O)cc1`, the “hERG current change (%, negative = inhibition) at 1uM” value is 12.1%.

Turning to `COc1ccccc1Cn1c(=O)[nH]c2cccnc21`, the “hERG current change (%, negative = inhibition) at 1uM” value is listed as 13.1%. For `O=C(Nc1cccc(C(=O)O)c1)/C(=C\c1ccco1)NC(=O)c1ccccc1Cl` the value was 8.42%; for `O=C(CCN1CCN(C(c2ccccc2)c2ccccc2)CC1)N/N=C/c1ccc(O)cc1O`, -7.66%; for `O=C(O)C1CCCCC1C(=O)NC1CCCCC1` (stereo not drawn), 12%. As to `O=C(Cc1ccc(F)cc1)Nc1nnc(SCC(=O)NC2CCCC2)s1`, the “hERG current change (%, negative = inhibition) at 1uM” value stood at 7.59%.

As for `COc1ccc(C(CNC(=O)COc2ccccc2C)N2CCCC2)cc1` (stereo not drawn), the “hERG current change (%, negative = inhibition) at 1uM” value is 0.233%. In the case of `Cc1ccc(-c2[nH]c3ccccc3c2SCCNC(=O)c2ccc(S(=O)(=O)N3CCOCC3)cc2)cc1` it was 15.3%.

With `Cc1ccc(NC(=O)CN2C(=O)S/C(=C\c3cc(C)n(-c4cccc(C(=O)O)c4)c3C)C2=O)cc1`, the “hERG current change (%, negative = inhibition) at 1uM” value was determined as 13.3%. With `Cc1nn(-c2ccc(F)cc2F)c(=O)c2noc(C)c12`, the “hERG current change (%, negative = inhibition) at 1uM” value is 13%. As for `CCN(C(=O)CCC(=O)N(CC)c1ccccc1)c1ccccc1`, the “hERG current change (%, negative = inhibition) at 1uM” value is on record as -3.95%. Take `COc1ccccc1NC(=O)C1CCCN1C(=O)NCc1ccccc1` (stereo not drawn): the “hERG current change (%, negative = inhibition) at 1uM” value came to 10.1%. For the compound `Cc1ccc(S(=O)(=O)N(CC(=O)N2CCCCCC2)c2ccccc2F)cc1`, the “hERG current change (%, negative = inhibition) at 1uM” value is on record as 11.9%. As for `Cn1cc(CN2CCCC(C(=O)c3ccc(-c4ccccc4)c(F)c3)C2)cn1` (stereo not drawn), the “hERG current change (%, negative = inhibition) at 1uM” value is listed as -2.23%.

In the case of `NS(=O)(=O)c1ccc(CCNC(=O)CSc2nc3ccsc3c(=O)n2CCCCCC(=O)O)cc1`, the “hERG current change (%, negative = inhibition) at 1uM” value is listed as 10.3%.

`Cc1ccc(OCc2nc3ccccc3[nH]2)cc1`: the “hERG current change (%, negative = inhibition) at 1uM” value is listed as 6.51%. For the compound `O=C(Nc1ccc(Cl)cc1C(F)(F)F)c1ccc(Cl)cc1`, the “hERG current change (%, negative = inhibition) at 1uM” value amounted to 16.1%.

With `CC(C)OC(=O)c1cccc(-c2ccc(C=O)o2)c1`, the “hERG current change (%, negative = inhibition) at 1uM” value stood at 9.15%. Take `O=C(Nc1nc2c(c(=O)[nH]1)CCCC2)C1CC1`: the “hERG current change (%, negative = inhibition) at 1uM” value is reported as 14%.

Turning to `O=S(=O)(Nc1ccc(-c2nc3cccnc3s2)cc1)c1cc(F)ccc1F`, the “hERG current change (%, negative = inhibition) at 1uM” value came to 10.5%. For `Cc1ccc(C(=O)N2CC(=O)NC(=O)C2)cc1` the value was -4.74%.
